# The whole screen tested about 360,000 compounds, of which about 7,500 (2.1%) were called active. The inconclusive results got no clear call from the source; some entries with a clear call stand among them for comparison. Calls come from the whole dose curve; as a rule, active = well fitted cell-killing curve with a large enough effect; inconclusive = small, poorly fitted or top-dose-only effect, or effect the other way, or another doubt; inactive = no such curve, though single readings can be large or run the other way. Potencies of inconclusive entries are left out as doubtful fits.
# Test: qHTS for induction of synthetic lethality in tumor cells producing 2HG: qHTS for the HT-1080-IDH1KD cell line;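 for activity, negative = toxicity: 0% = DMSO wells and -100% = cell-free medium wells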
# Conditions: HT-1080 IDH1 knockdown viability, ATP luminescence, 48 h; activity, negative = toxicity: at 46.1 µM (top of the series) unless noted
# Summary of the method: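 % activity derives from luminescence (CellTiter-Glo), normalised to DMSO and no-cell wells. HT-1080-IDH1KD cells, 750/well, had 48 h compound exposure at 37 °C.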
# Potency is the fitted concentration of half-maximal effect; tags give direction and shape of the fitted curve.
Compound,Potency,"activity, negative = toxicity"
N#Cc1c(N)n(CCOC(=O)c2ccc(Cl)cc2)c2nc3ccccc3nc12,"inconclusive [cytotoxic, single point]",–
CCc1nc2c(OCCC3CCCCC3)cccn2c1N(C=O)Cc1ccc(OC)cc1,"inconclusive [cytotoxic, single point]",–
O=C(NCc1cccnc1)c1cc(C2CCCCN2C(=O)c2ccc3c(c2)CCO3)on1 (stereo not drawn),"inconclusive [rising, partial curve]",–
C=CCNC(=S)Nc1sc2c(c1C(N)=O)CCCC2,–,inactive: -10.6%
CC(C)C(=O)Nc1cc(C(F)(F)F)ccc1N1CCOCC1,–,inactive: 1.1% [at 9.24 µM]
O=C(/C=C/c1ccc2c(c1)OCO2)Nc1nncs1,active: 1.03 µM,–
Cc1ccc(Cn2nnc3c(=O)[nH]c(C4CCN(S(=O)(=O)c5ccccc5F)CC4)nc32)cc1,"inconclusive [cytotoxic, single point]",–
C/C(=N/Nc1ccnc2cc(Cl)ccc12)c1ccc(N)cc1,"inconclusive [cytotoxic, single point]",–
O=C(c1cccc(C(F)(F)F)c1)C1CCCN(Cc2cccn2-c2ccccn2)C1 (stereo not drawn),"inconclusive [cytotoxic, single point]",–
COC(=O)c1ccc(OS(=O)(=O)c2ccc(NC(C)=O)cc2)cc1,–,inactive: 0.481%
O=C(Cc1cccs1)N/N=C/C(Br)=C/c1ccccc1,"inconclusive [cytotoxic, single point]",–
O=C(Nc1cccc(-c2cn3ccccc3n2)c1)c1cccc(Cl)c1,"inconclusive [cytotoxic, single point]",–
CN(C)CCCN(C(=O)CCc1ccccc1)c1nc2ccc(Cl)cc2s1,active: 16.4 µM,–
O=C(CN1C(=O)C2(OCCO2)c2cc(Br)ccc21)NO,"inconclusive [cytotoxic, single point]",–
CC(=O)O[C@]1(C(C)=O)CC[C@H]2[C@@H]3C[C@H](C)C4=CC(=O)CC[C@]4(C)[C@H]3CC[C@@]21C,"inconclusive [cytotoxic, single point]",–
O=C(CCC(=O)Nc1ccc(Br)cc1)N/N=C/c1ccccc1O,active: 13 µM,–
CCCCCCCCS(=O)C1CCS(=O)(=O)C1 (stereo not drawn),–,inactive: -0.104%
Clc1ccccc1/C=N/Nc1cc(N2CCOCC2)ncn1,–,inactive: 17.4%
Nc1c(C(=O)NCC2CCCO2)c2nc3ccccc3nc2n1-c1ccccc1 (stereo not drawn),"inconclusive [cytotoxic, single point]",–
O=C(CSc1nc(-c2ccccc2)cs1)N1CCN(C(=O)c2ccco2)CC1,–,inactive: -3.99%
CCc1cc2c(CN(C)Cc3ccccc3F)cc(=O)oc2cc1O,"inconclusive [cytotoxic, single point]",–
CC(C)C(NS(=O)(=O)c1cccc(C(F)(F)F)c1)C(=O)N1CCc2ccccc2C1 (stereo not drawn),–,inactive: -19.5%
CCCc1cc(-c2nc(N)ncc2-c2ccc3c(c2)OCCCO3)c(O)cc1OC,"inconclusive [cytotoxic, single point]",–
Cc1noc(C)c1S(=O)(=O)NC(=O)C1(C)CCN1C(=O)C1(c2ccc(Cl)cc2)CC1 (stereo not drawn),"inconclusive [rising, single point]",–

Compound,Potency,"activity, negative = toxicity"
CC(=O)c1ccc(NC(=S)NCc2cccnc2)cc1,"inconclusive [cytotoxic, single point]",–
CC(OC(=O)C1=COCCO1)C(=O)Nc1cc(S(=O)(=O)N2CCCCC2)ccc1Cl (stereo not drawn),–,inactive: -2.06%
COc1cccc(NC(=O)Nc2nnc(N3C(C)CCCC3C)s2)c1 (stereo not drawn),–,inactive: 10.5%
Cc1ccc(OCCOCCN2CCN(C)CC2)c(C(C)(C)C)c1,–,inactive: -16.5%
O=C(Nc1ccccc1)c1ccc(Cn2cc(C(F)(F)F)ccc2=O)cc1,–,inactive: -0.824%
Cc1ccc(/C=C/c2nnc(-c3cccs3)o2)cc1,"inconclusive [rising, full curve, poor fit]",–
CC(C(=O)N1CCN(c2ccc(Cl)cc2)CC1)c1ncc(C(F)(F)F)cc1Cl (stereo not drawn),"inconclusive [cytotoxic, partial curve]",–
Cc1cc(NCc2ccccn2)n2ncc(-c3ccc(Cl)cc3)c2n1,"inconclusive [cytotoxic, partial curve]",–
CCN(CC)C(=O)c1ccc(S(=O)(=O)N2CCC(c3nc4ccccc4s3)CC2)cc1,–,inactive: -15.9% [at 9.24 µM]
O=C(NCc1nc(-c2ccccc2)no1)c1ccc2c(c1)OCO2,–,inactive: -2.42%
Cc1ccc(S(=O)(=O)N2CCN(C(=O)Cn3cnc4c3c(=O)n(C)c(=O)n4C)CC2)cc1C,–,inactive: 3.61%
COc1cc(C)c(C(=O)CSc2nnc(CNC(=O)c3ccco3)n2C)cc1C,–,inactive: 5.16%
Cn1cccc1C(=O)C(=O)Nc1ccccc1C(F)(F)F,–,inactive: 30%
COc1ccc(CC(N)c2csc(NC(=O)Nc3ccccc3C(C)C)n2)cc1 (stereo not drawn),"inconclusive [cytotoxic, single point]",–
COc1ccc(-c2cc(C(=O)N3CCN(c4ccccc4)CC3)no2)cc1,"inconclusive [cytotoxic, single point]",–
Cc1nn(Cc2ccc(Cl)c(Cl)c2)c(C)c1NC(=O)c1sc2ccccc2c1Cl,"inconclusive [cytotoxic, single point]",–
Cc1nc2ccc(NC(=O)c3ccc(S(=O)(=O)N(C)c4ccccc4)cc3)cc2s1,"inconclusive [cytotoxic, single point]",–
CC1(c2ccccc2)NC(=O)N(CC(=O)Nc2ccc3c(c2)CCC3)C1=O (stereo not drawn),–,inactive: -16.3%
CCCC[C@@H]1CN=C(N)N1CC(C)(C)C,–,inactive: 7.7%
CC(C)(C)c1ccc(C(O)c2ncc(-c3ccc4ccccc4c3)[nH]2)cc1 (stereo not drawn),"inconclusive [cytotoxic, single point]",–
CCOc1ccc(-n2c(=O)c3ccccc3c3ccccc3c2=O)cc1,–,inactive: 0.682%
Cc1ccnc(NC(=O)Cc2ccc(-c3ccccc3)cc2)c1,"inconclusive [cytotoxic, single point]",–
CCOC(=O)COc1ccc2ccccc2c1/C=C/[N+](=O)[O-],active: 4.11 µM,–
NC(=O)c1c(NC(=O)c2cc3ccccc3o2)sc2c1CCC2,"inconclusive [cytotoxic, single point]",–
